Source: PubChem BioAssay AID485344 (National Center for Advancing Translational Sciences (NCATS), 2010)
Hit rate of the full screen: of about 340,000 compounds, about 6,900 (2%) were called active. No stated cut-off is given here; in the data, active means inhibition above about 30%; inactive means below that, where a call was filed. Only a part is listed here, and it is no random draw. The source gives no active or inactive call for entries shown without one.

The compounds below were run against D(2) dopamine receptor (Homo sapiens) (UniProt P14416) (assay: HTS Assay for Allosteric Antagonists of the Human D2 Dopamine Receptor: Primary Screen for Antagonists). Details: HEK293 TREx D2 cells, calcium flux, dopamine EC80; at 10 µM; stronger effect = higher value.
UniProt P14416, sequence (P14416 whole entry, looked up): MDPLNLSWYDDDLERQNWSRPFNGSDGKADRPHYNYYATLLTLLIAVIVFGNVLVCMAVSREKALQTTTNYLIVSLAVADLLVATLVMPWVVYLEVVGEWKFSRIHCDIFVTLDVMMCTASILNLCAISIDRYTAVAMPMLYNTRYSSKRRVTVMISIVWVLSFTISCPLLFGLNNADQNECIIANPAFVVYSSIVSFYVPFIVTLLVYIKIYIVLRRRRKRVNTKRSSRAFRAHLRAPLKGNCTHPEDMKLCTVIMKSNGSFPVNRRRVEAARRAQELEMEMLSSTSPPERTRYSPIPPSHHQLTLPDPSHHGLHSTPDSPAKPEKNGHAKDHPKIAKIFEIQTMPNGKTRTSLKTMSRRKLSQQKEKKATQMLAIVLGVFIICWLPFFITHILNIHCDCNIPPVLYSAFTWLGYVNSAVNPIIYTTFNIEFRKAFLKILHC
How it was run: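 In this primary screen, negative modulation is detected by tracking calcium flux after an EC80 dopamine challenge in inducible HEK293 T-REx D2 cells preexposed to test compound for 180 s.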
Further: 0% is about no effect.

Compound	inhibition
COC(=O)c1cc2oc(C)cc2n1CC(=O)Nc1cc(Cl)ccc1OC	-5.8%
CCNc1oc(-c2ccc(COc3ccc(Cl)cc3)o2)nc1C#N	4.92%
CCCCOc1ccc(CNC(=O)Cc2ccc(NC(=O)N3CCSc4ncccc43)cc2)cc1	0.226%
O=C(CSC1=Nc2ccccc2N=C(c2ccc(F)cc2)C1)NCc1ccccc1Cl	-9.74%
Cn1c(CN2CCCC2)nc2cc(NC(=O)COc3ccc(Cl)cc3)ccc21	active: 41%
COCCn1c(=O)[nH]c2cc(C(=O)NCCN3CCN(c4ccccc4F)CC3)ccc2c1=O	active: 96.4%
Cc1nn(-c2ccc(N3CCOCC3)nn2)c(C)c1CCC(=O)NCc1ccccc1F	2.71%
CCOc1ccc(CNC(=O)c2sc3ncnc(N(C)C4CCCCC4)c3c2C)cc1	-24.1%
NC(=O)c1ccccc1NC(=O)Cn1nc(Cc2cccnc2)c2ccccc2c1=O	1.5%
COC(=O)c1cccc(Nc2nn3c(=O)c4cc5c(cc4nc3s2)OCO5)c1	1.04%
COc1ccc(-c2[nH]c3ccccc3c2SCCNC(=O)c2ccc(S(=O)(=O)N(C)C)cc2)cc1	4.56%
COc1ccc(S(=O)(=O)NCC(c2ccc(N(C)C)cc2)N2CCOCC2)cc1 (stereo unspecified)	-9.92%
Cc1ccc2[nH]c3c(=O)n(CC(=O)NC(C)C)ncc3c2c1	3.51%
COc1ccc(CNC(=O)CSc2ncc(S(=O)(=O)c3ccc(Br)cc3)c(=O)[nH]2)cc1	5.73%
CC(C)N1CCc2nc(SCC(=O)Nc3cccc(F)c3)[nH]c(=O)c2C1	-2.28%
COc1ccc(-c2nc3scc(CCNC(=O)c4cc(OC)cc(OC)c4)n3n2)cc1	-0.987%
O=C(O)CSCCc1ccccn1	active: 52.8%
CCOc1ccc(C(=O)OCc2cc(=O)n3cc(C)sc3n2)cc1	6.95%
COc1ccc2c(c1)C=C(C(=O)NCc1cc(Br)ccc1OC)CO2	0.0738%
CCCCCn1cc2c(c1-c1ccc(Cl)cc1)c(=O)n(C)c(=O)n2C	-10.8%
Cc1cccc(C(=O)Nc2ccc3oc(-c4ccncc4)nc3c2)c1	2.22%
CCc1ccccc1NC(=O)c1sc(-n2nc(C)c(Cc3ccc4c(c3)OCO4)c2C)nc1C	5.02%
COc1ccccc1NC(=O)c1sc2ncn(Cc3ccccc3Cl)c(=O)c2c1C	0.78%
CCOC(=O)C1CCCN(S(=O)(=O)c2ccc3[nH]c(=O)oc3c2)C1 (stereo unspecified)	-14.8%

Compound	inhibition
COc1ccc(C)cc1-n1c(-c2ccc(C)cc2)cc2c1CC(C)(C)CC2=O	-10.8%
O=C(Cn1c2ncccc2c(=O)n1-c1ccccc1)Nc1ccc(Cl)cc1C(F)(F)F	1.53%
COCc1cc(C)nc2sc3c(c12)NC(c1ccc(O)cc1)N(c1ccc(C)cc1)C3=O (stereo unspecified)	19.1%
O=C(OCc1cccc(C(F)(F)F)c1)c1ccc(-c2nnn(Cc3ccc(F)cc3)n2)cc1	-5.84%
Cc1nn(C(=O)c2ccccc2)c(C)c1S(=O)(=O)N1CCCCCC1	12.5%
CCn1c(=N)c(C(=O)NC2CCCC2)cc2c(=O)n3ccccc3nc21	10%
COc1ccc(-n2c(/C=C/c3c(C)[nH]c4ccccc34)nc3ccccc3c2=O)cc1	2.16%
COc1cccc(CNc2nccn(-c3ccc(OC)c(OC)c3)c2=O)c1	4.25%
Cc1nn(C)c2c1c(-c1ccccc1)cc(=O)n2Cc1ccc(Cl)cc1	1.47%
COc1ccccc1C(=O)Nc1ccc(OCc2cc(=O)n3ccc(C)cc3n2)cc1	3.53%
CCOc1ccc(S(=O)(=O)N2CCC(N3CCN(Cc4ccc(C)cc4)C(=O)C3=O)CC2)cc1	-0.678%
COc1ccc(CNC(=O)c2cnn(-c3ccc(C)cc3)c2-n2cccc2)cc1OC	9.63%
CCOc1ccc(CNC(=O)C2CCN(S(=O)(=O)c3cn(C)cn3)CC2)cc1OC	10%
Cc1ccc(CNC(=O)c2cc(C3CC3)nc3c2cnn3C(C)C)cc1	active: 39.3%
COC(=O)C1=CN(CC2CCCO2)C=C(C(=O)OC)C1c1ccccc1C(F)(F)F (stereo unspecified)	active: 43.4%
COc1cccc(CN2C(=O)CN(C3CCCCC3)C(=O)C2c2ccc(OC)c(OC)c2)c1 (stereo unspecified)	-16.6%
COc1ccc2c(c1)c1c(c(=O)n(-c3ccccc3C)c(=O)n1CC(=O)N1CCCC1)n2C	4.89%
COc1ccc(C2C=C(c3ccccc3)Nc3nc(NC(=O)/C=C/c4ccc(F)cc4)nn32)cc1 (stereo unspecified)	-1.61%
CCC(C)Sc1c(C(C)C)cnc2c1c(=O)n(C)c(=O)n2C (stereo unspecified)	-5.93%
COc1ccc(-c2cc(C(F)(F)F)c(C#N)c(SCC(=O)Nc3ccccc3F)n2)cc1	1.1%
COc1ccc(NC(=O)CSc2oc(-c3cccs3)nc2S(=O)(=O)c2ccc(Br)cc2)c(OC)c1	5.26%
Cc1nc2ccn(Cc3cccs3)c(=O)c2cc1C(=O)NCc1ccccc1	17.3%
Cc1ccc(Nc2sc(C(=O)c3ccccc3)c(N)c2C(=O)NC(C)C)cc1	-20.1%
CCc1nonc1NC(=O)c1oc2cc(C)c(Cl)cc2c1C	-8.54%

Compound	inhibition
COc1ccccc1-c1cc(C(=O)NCc2ccc(F)cc2)no1	active: 74.1%
COc1ccc(Cn2ccc3nc(C)c(C(=O)N4CCN(c5ccccc5)CC4)cc3c2=O)cc1	-3.13%
O=C(c1cn(CCOc2ccccc2F)c2ccccc12)C1CCCCC1	-8.23%
COc1ccc(C(=O)c2oc3ccccc3c2NC(=O)c2ccc(F)cc2)cc1	-8.57%
CCOC(=O)c1ccc(NC(=O)c2cn(-c3ccccc3)nc2-c2ccc(Br)cc2)cc1	-1.01%
O=C(NC1CC(=O)N(c2cccc(F)c2)C1)c1ccc(S(=O)(=O)N2CCOCC2)cc1 (stereo unspecified)	-0.285%
COc1ccccc1CN1COc2ccc3c(C)cc(=O)oc3c2C1	-6.18%
Cc1ccc(NC(=O)Cn2c(=O)oc3ccccc32)cc1Cl	-26.4%
CCOC(=O)c1ccc(NC(=O)CSc2ccc(-c3sc(C)nc3C)nn2)cc1	-2.94%
CCn1nc(C)c(CN2CCC(C(=O)Nc3cccc(-c4cccc(F)c4)c3)CC2)c1C	active: 37.8%
COc1ccccc1N1CCN(C(=O)c2sc3nc4n(c(=O)c3c2C)CCC4)CC1	20.3%
CCOc1ccc(C(=O)c2cn(Cc3ccccc3OC)c3cc4c(cc3c2=O)OCCO4)cc1	-3.5%
CCC(=O)N1CCc2cc(S(=O)(=O)CCC(=O)Nc3ccc(Cl)c(C(F)(F)F)c3)ccc21	1.97%
CCCCN(CC)CCNC(=O)c1cn(CCOC)c(=O)c2c1c1ccccc1n2C	14.4%
COc1cccc(CC2(CO)CCCN(Cc3ccc(CN4CCCCC4)s3)C2)c1 (stereo unspecified)	active: 39.6%
COc1ccc(CNC(=O)C2CCN(Cc3nc(-c4ccc(OC)c(OC)c4)oc3C)CC2)cc1	-5.04%
Cc1ccc(-c2cc(C(F)(F)F)n3nc(-c4ccc(Cl)cc4)cc3n2)cc1	-4.08%
COc1cccc(OC)c1C(=O)Nc1nnc(C)s1	-18.7%
Cc1ccc(N(CC(C)C)S(=O)(=O)c2nnc(NC(=O)c3ccco3)s2)cc1	1.61%
O=C(COC(=O)C(Cc1c[nH]c2ccccc12)NC(=O)c1ccc(Br)cc1)c1ccc(Cl)cc1 (stereo unspecified)	10.4%
Cc1ccc2oc(C(=O)N(Cc3cccc(F)c3)C3CCS(=O)(=O)C3)c(C)c2c1 (stereo unspecified)	15.1%
CC(C)CCC(CCN1CCOCC1)c1ccc2c(c1)OCO2 (stereo unspecified)	active: 30.9%
O=C(NCc1ccccc1Cl)C1CCC(CNS(=O)(=O)c2ccc(Cl)cc2)CC1 (stereo unspecified)	6.96%
COc1cccc(NC(=O)N2CCC(n3c(C)nc4cccnc43)CC2)c1	3.54%

Compound	inhibition
COc1cccc(Cn2c(=O)n(-c3ccc(C)c(F)c3)c(=O)c3sc4ccccc4c32)c1	-6.71%
O=C(CCc1cn(Cc2ccccc2F)c2ccccc12)NCc1ccc(Cl)cc1	18.4%
CCOC(=O)c1nc(Nc2ccc(C(=O)OCC(C)C)cc2)c2ccccc2n1	24.2%
CC1CCC(NC(=O)CCCn2sc3ccccc3c2=O)CC1 (stereo unspecified)	active: 39%
CCOC(=O)c1cc(-c2ccccc2)n(CC(=O)Nc2ccc(OC)cc2OC)c1C	0.285%
CSc1cccc(-c2nnc(NC(=O)c3ccc4c(c3)OCCO4)o2)c1	-2.5%
CC(C)CC(=O)NCc1nc2cccnc2n1Cc1ccccc1	6.18%
CC1=C(C(=O)Nc2ccc(C)cc2C)C(c2ccc(Cl)cc2)n2nc(C(=O)OC(C)C)nc2N1 (stereo unspecified)	-7.8%
CCc1ccc(NC(=O)c2cc3sc(Cl)cc3n2C)cc1	4.66%
O=C(Cn1cnc(S(=O)(=O)N2CCCC2)c1)Nc1ccc(OC(F)(F)F)cc1	-5.57%
COc1ccc(CN2COc3ccc4c(-c5ccccc5)cc(=O)oc4c3C2)cc1	22.5%
CCOC(=O)c1c(C)[nH]c(C)c1S(=O)(=O)N1CCCC(C(=O)Nc2ccc(OC)c(Cl)c2)C1 (stereo unspecified)	-0.607%
O=C(Cn1ncc2c3ccccc3n(Cc3ccccc3F)c2c1=O)NCCc1ccc(Cl)cc1	6.07%
[N-]=C=C1C(=O)NC(=O)C([n+]2ccc(-c3ccncc3)cc2)C1c1ccccc1C(F)(F)F (stereo unspecified)	active: 35.5%
COc1cccc(CNC(=O)CSc2c3c(nc4ccc(Cl)cc24)CCCC3)c1OC	9.21%
CCc1cccc(NC(=O)Cn2c(=O)n(CCc3ccc(OC)c(OC)c3)c(=O)c3ccccc32)c1	-2.37%
Cc1nn(CC(=O)NCCCc2ccccc2)c(=O)c2cc3occc3n12	active: 32.4%
COCc1cc(C)n(CC(=O)N2CCCC2)c(=O)c1C#N	active: 30.8%
O=C(Cn1ncc2c(=O)oc3ccccc3c21)NCc1ccccc1Cl	5.62%
COc1ccc(CC(=O)NCc2ccc3c(c2)CCN3C(=O)c2ccc(C)cc2)cc1OC	-8.51%
C1COC(NC(C2CC2)C2CC2)=N1	active: 36.2%
Cc1ccc(CNC(=O)CN(c2ccc(Cl)cc2Cl)S(=O)(=O)c2ccccc2)cc1	4.41%
O=C(/C=C/c1ccco1)NCC1OCCc2ccccc21 (stereo unspecified)	active: 30.8%
CN(C)c1ccc(CNC(=O)CN(C)S(=O)(=O)c2ccc3c(c2)c(=O)n(C)c(=O)n3C)cc1	21.6%
